The supplement of paper PMC11417369
± gives the standard deviation of the averaged measurements. This is one part of the list.

The sequences below were run on PfAP2-EXP AP2 domain (GST-tagged) (assay: gcPBM binding intensity (ln(normalized median fluorescence intensity)); higher = stronger DNA binding).
Procedure, shortened: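 The highest Masliner-normalised natural-log median intensity across replicate spots of either probe orientation is reported as binding intensity. GST-tagged P. falciparum DNA-binding domains expressed in E. coli were applied for 1 h to an Agilent 4 × 180k array of primer-extended double-stranded 36-bp intergenic genomic probes plus negative controls, and bound protein was detected with Alexa488 anti-GST antibody and scanned at 488 nm.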

| Sequence | gcPBM binding intensity (ln) |
| --- | --- |
| AATTGAGAAGTGTGTTGTACATAATGGCACATACCT [XGTACX_site1370] | 8.73 ± 0.32 |
| TTATTTTTTTGGAATTCACACACAAAAAAAAAAATA [CACACA_site8650] | 8.55 ± 0.42 |
| TATATATATATGTGTACACATGTCGCATTTTTTTAT [CACACA_site4648] | 10 ± 0.26 |
| GATATTATAAAATAAAAATAAATCATTTCTATTCAT [CACACA_negctrl_site334] | 7.99 ± 0.35 |
| TTATGTGTATAGGTTTGTACATAAAATGATGTATAG [XGTACX_site1401] | 8.46 ± 0.38 |
| TAGTCATATATATATGTACACACATATATATATTTA [CACACA_site8413] | 8.39 ± 0.35 |
| TCATGGAATATTTAAAGTACAAAAAGTGTTCTTTAC [XGTACX_site715] | 8.21 ± 0.3 |
| ATATATTATGGGTGTGCACACAATATTTATATGTTC [CACACA_site2270] | 8.93 ± 0.4 |
| TTATAATAAATATATAAAAAAAAAAAAAAAAAAAAA [CACACA_negctrl_site1639] | 7.97 ± 0.23 |
| TGATAGCACCTTATATGTACATATAATATATTATTA [XGTACX_site837] | 8.89 ± 0.23 |
| TTTTCTTATAAATGAAGTACAAAAAAAAAATATATA [XGTACX_site1352] | 8.63 ± 0.46 |
| ACATATATGGAGCTTATACACACTTTTATATTTTAA [CACACA_site3854] | 8.42 ± 0.41 |
| TTATCATATAATTATTGTACTAAAAAAAAAGCGAGT [XGTACX_site3086] | 8.91 ± 0.4 |
| TTTTAAATATGCCATACACACTACTCTATAATAAAT [CACACA_site6987] | 8.46 ± 0.46 |
| TAAAATTTGCGATGCACACAGAATAGCTAATATGAC [CACACA_site2995] | 8.9 ± 0.38 |
| TATTTTCTCGTTTGCATGCACCTTATTTTATGTGGT [GTGCAC_site9470] | 10 ± 0.11 |
| ATATTATATATATACACACACACATGCATGCACATA [CACACA_site7917] | 9.94 ± 0.16 |
| TACTAAAACCCATACACACACATATTTATAGTACCA [CACACA_site7484] | 8.49 ± 0.41 |
| AAATTCTGCATCGAGGTGCGCCATAAAAATTGTGGT | 8.765 ± 0.035 |
| AGTTATTTTAAATGTAGTACACAAAAGAAATATTAA [XGTACX_site4092] | 8.68 ± 0.22 |
| CATAAATTAAAACACACACACACAAAAAAAAAAAAA [CACACA_site2262] | 8.32 ± 0.62 |
| TTTAAAAATATATATTGTACATATATATATCTATGA [XGTACX_site3556] | 8.32 ± 0.4 |

| Sequence | gcPBM binding intensity (ln) |
| --- | --- |
| ATAAAAATTAAAAGGAGTACTTAAATATTAAGATGG [XGTACX_site4815] | 8.67 ± 0.27 |
| TTTATTTAAAAAATAAAAAAAAAAAAAAAAAAAAAA [CACACA_negctrl_site1670] | 7.82 ± 0.38 |
| TACTATTTAAAATTTGAACACACATTATTTATTTTA [CACACA_site9020] | 8.27 ± 0.31 |
| TATACAATATATATAACACACATATTTATATAAAAT [CACACA_site5061] | 8.29 ± 0.38 |
| CAGTTGGAAGGAAAGTGTACATAAAAAAAAATATAA [XGTACX_site8784] | 8.95 ± 0.44 |
| AAAATACCATTTGAAACACACAAAAAAAAAAAAAAT [CACACA_site2981] | 8.36 ± 0.66 |
| AACATAAAAATTGAAGCACACACACTAATGAAATAC [CACACA_site8287] | 9.1 ± 0.35 |
| ACAAATCTATAAGAGTGTACGAACAGTAAAGGAATT [XGTACX_site2070] | 9.12 ± 0.51 |
| ATGTGAACATTCAATGCACACGATGTAATTATACAT [CACACA_site15] | 8.6 ± 0.27 |
| ATAAAAATCTTTAGTAGTACATTATAAAAAACTATT [XGTACX_site5531] | 8.45 ± 0.42 |
| TTTTTAATATATATCACACATATATATTTTTAATTA [CACACA_site6099] | 8.28 ± 0.31 |
| CTAATCGTGCACAACTGTACATTTGTCAAGGGCAAT [XGTACX_site8662] | 9.17 ± 0.23 |
| CGGCTATTTCTATATACATGCATTTAAAAAAAAAAT [TGCATGCA_site354] | 8.56 ± 0.44 |
| TATATATCTGTGAAAATACTTAAATTGTTATAAAAA [CACACA_negctrl_site1109] | 8.11 ± 0.34 |
| ACCTATTTCAAACACACACACACACTAACAAACATA [CACACA_site8233] | 8.74 ± 0.4 |
| AAAAAAAAAATGAGCACACATAAATAAAAACAAACA [CACACA_site1573] | 8.8 ± 0.5 |
| AAAACATCAAAAATGTGTACATATATATATATATAT [XGTACX_site8884] | 10.3 ± 0.21 |
| ATATATATATATGCATGTACATATTTATCTTTATAT [XGTACX_site232] | 10 ± 0.28 |
| AACATATATTAGCTTACATGCAAAAAGTAAAAAAAT [TGCATGCA_site10] | 9.29 ± 0.16 |
| AATTTAAAACGGAGATGTACATATATAAATATATAC [XGTACX_site3723] | 8.63 ± 0.4 |
| AATATTTTAAATATTGCATGCAATGAAAAATGTAAA [TGCATGCA_site139] | 10.2 ± 0.31 |
| TTTTAAAATTTTTTTTTTTTTTTTTTATGAACAAGT [GTGCAC_negctrl_site124] | 7.91 ± 0.41 |
